Measurements reported in PubChem BioAssay AID588855 (National Center for Advancing Translational Sciences (NCATS), 2011).
In all, about 410,000 compounds went through this assay and about 5,000 (1.2%) were called active. The shares of active, inactive and inconclusive entries below differ from those in the screen. The call rests on the fitted dose curve; in most records, active means well fitted inhibition curve with a large enough effect; inconclusive means small, poorly fitted or top-dose-only effect; inactive means no such curve, though single readings can be large or run the other way. Potencies of inconclusive entries are doubtful fits and often do not repeat.

Assay: qHTS for Inhibitors of TGF-b; further: nearly all actives have a fitted effect of over 65% in size
Conditions: HepG2 CAGA-GFP TGF-b/SMAD3 reporter, GFP fluorescence, 18 h, TGF-beta stimulated, 500 pg/mL final; series mostly up to 46.1 µM; activity, negative = inhibition: at the top concentration
Outline: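 Inhibition of TGF-beta-driven CAGA-GFP reporter expression in HEPG2 cells is measured by cellular GFP fluorescence after 18 h stimulation with 500 pg/mL recombinant TGF-beta in 1% FBS medium at 37 degrees C.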
On the % scale 0 is the no-effect control and ±100 the full control effect; potency means the concentration at half of the fitted maximal effect; tags describe the fitted curve by direction and shape.

Structure (SMILES)	Potency	activity, negative = inhibition
O=C(Nc1cccc(C(F)(F)F)c1)c1cccnc1N1CCN(c2ccccc2)CC1	inconclusive: 35.5 µM [inhibitor, single point]	
N#Cc1nc(-c2ccc(COc3ccc(Cl)cc3)o2)oc1N1CCC(C(N)=O)CC1	inconclusive: 35.5 µM [inhibitor, single point]	
Cc1nn(C)c(C)c1Sc1ccc(Br)cc1	inconclusive: 5.62 µM [inhibitor, single point]	
CCCC(=O)c1ccc(N2CCN(C(=O)c3cccs3)CC2)c(F)c1		inactive: -22.5%
COC(=O)C1=C(C)Nc2nc3ccccc3n2C1c1ccccc1F (stereo not given)		inactive: -11.7%
Cc1ccc(OCC(=O)N/N=C/c2cn(Cc3ccccc3)c3ccccc23)cc1	inconclusive: 8.91 µM [inhibitor, partial curve, poor fit]	
Cc1ccc(NC(=O)c2cc([N+](=O)[O-])ccc2N2CCOCC2)cc1S(=O)(=O)N1CCOCC1	inconclusive: 28.2 µM [inhibitor, single point]	
CCCCCCCN1C(N(C)C)=NC[C@@H]1Cc1ccccc1	inconclusive: 0.224 µM [inhibitor, full curve, poor fit]	
COc1cccc(-n2cnc3cccc(N)c32)c1	inconclusive: 22.4 µM [inhibitor, single point]	
Cc1ccccc1NC(=O)C1CCCN(S(=O)(=O)c2cccc3cccnc23)C1 (stereo not given)		inactive: 1.72%
COc1ccc(-c2[nH]ncc2CNC(C)c2ccccc2Cl)cc1F (stereo not given)	inconclusive: 10 µM [inhibitor, partial curve, poor fit]	
CCOc1ccc(CNC(=O)CS(=O)(=O)c2cccc3nsnc23)cc1		inactive: -7.76%
O=C(Oc1c(Cl)cc(Cl)c2ccccc12)N1CCCC1		inactive: -4.3%
COC(=O)c1ccccc1NC(=O)Cn1nc(C(F)(F)F)c2c1CCC2	inconclusive: 0.708 µM [inhibitor, full curve, poor fit]	
CCCOc1ccc(F)cc1-c1cc(C(=O)NCc2ccc(F)cc2)[nH]n1	inconclusive: 35.5 µM [inhibitor, single point]	
COc1ccc(CN(CC(=O)NCc2ccc(F)cc2)C(=O)c2csnn2)cc1		inactive: -1.47%
O=C(N/N=C/c1cc([N+](=O)[O-])ccc1O)c1c[nH]c2ccccc12	inconclusive: 35.5 µM [inhibitor, single point]	
CCC1(c2ccc(C)cc2)NC(=O)N(C(C)C(=O)Nc2ccc(N3CCOCC3)cc2)C1=O (stereo not given)		inactive: 3.97%
CCc1nccn1CCC(=O)N1CCCC(N2CCN(c3ccccc3F)CC2)C1 (stereo not given)	inconclusive: 11.2 µM [inhibitor, partial curve, poor fit]	
CC(=O)Nc1ccc(S(=O)(=O)Nc2nccc(/C=C/c3ccccc3F)n2)cc1	inconclusive: 5.62 µM [inhibitor, single point]	
COCCNC(=S)N(C)[C@H]1C[C@H]2c3cc(Oc4ccccc4C)ccc3CCN2C(=O)[C@H]1[C@H](C)O	inconclusive: 5.62 µM [inhibitor, full curve, poor fit]	
S=C(NCCCc1ccccc1)NC1CCCCC1	inconclusive: 35.5 µM [inhibitor, single point]	

Structure (SMILES)	Potency	activity, negative = inhibition
CC1(C)S[C@@H]2[C@H](NC(=O)COc3ccccc3)C(=O)N2[C@@H]1C(=O)OCc1cccc2cccnc12	inconclusive: 35.5 µM [inhibitor, single point]	
CC(=O)c1ccc(S(=O)(=O)N2CCN(c3nc(-c4ccccc4)nc4ccccc34)CC2)cc1		inactive: -2.05%
O=C(COc1ccccc1)N1CCN(c2ccc([N+](=O)[O-])c(N3CCCCC3)c2)CC1	inconclusive: 3.16 µM [inhibitor, full curve]	
CCOC(=O)N1CCC(NC(=O)c2cc(S(=O)(=O)N3CCC4(CC3)OCCO4)ccc2F)CC1		inactive: -1.92%
COc1ccc(-c2nc(CS(=O)(=O)CC(=O)NCCc3ccc(C)cc3)c(C)o2)cc1	inconclusive: 15.8 µM [inhibitor, single point]	
COc1ccc(CNC(=O)C[C@H]2C[C@H](C(=O)N3CCCCC3)[C@@]3(CCc4ccccc4)c4[nH]c5ccc(Cl)cc5c4CCN3C2=O)cc1OC	active: 6.31 µM	
Cc1c(C(=O)OCC(=O)NC2CCCCC2)oc2ccccc12	inconclusive: 15.8 µM [inhibitor, single point]	
Cc1ccc(C)c(S(=O)(=O)N2CCCCC2CCNC(=O)C(=O)NCc2ccccc2)c1 (stereo not given)	inconclusive: 2.82 µM [inhibitor, partial curve, poor fit]	
COc1cccc2c1C(=O)c1c(O)c3c(c(O)c1C2=O)CC(O)(C(C)=NNC(=O)c1ccc(Cl)c(Cl)c1)CC3OC1CC(N)C(O)C(C)O1 (stereo not given)	active: 1.12 µM	
O=C(NCC1CCCCC1)c1[nH]c(C(F)(F)F)nc1-c1ccccc1	inconclusive: 35.5 µM [inhibitor, single point]	
OCCCN1CCN(CCCOc2ccccc2-c2ccccc2)CC1	inconclusive: 0.891 µM [inhibitor, full curve, poor fit]	
CCCCCCCCN1[C@@H](CC(C)=O)c2ccc(/C=C/C(C)=O)cc2S1(=O)=O	inconclusive: 11.2 µM [inhibitor, partial curve, poor fit]	
O=C(/C=C/c1c[nH]c2ccccc12)c1ccccc1	inconclusive: 17.8 µM [inhibitor, single point]	
C/C(=N/Nc1ccc(Cl)cc1)c1cnnc(-c2ccccc2)n1		inactive: 0.78%
O=C(Nn1c(-c2ccc(F)cc2)nc2ccccc2c1=O)C1CCCCC1		inactive: -12.8%
C=C(C)CNC(=S)Nc1nc2c(cc1C(=O)OCC)CCCC2		inactive: 2.9%
O=C(CN1CCc2ccccc2C1)Nc1ccccc1N1CCCCCC1	inconclusive: 11.2 µM [inhibitor, partial curve, poor fit]	
CCc1ccc(CNC(=O)Cn2nc(-c3ccc(C)cc3)ccc2=O)cc1	inconclusive: 35.5 µM [inhibitor, single point]	
O=C(CC1(O)C(=O)Nc2ccccc21)c1cccc(Br)c1 (stereo not given)	inconclusive: 6.31 µM [inhibitor, single point]	
CCOC(=O)C1CCCN(Cc2ccc(OC)cc2OC)C1 (stereo not given)	inconclusive: 35.5 µM [inhibitor, single point]	
COc1ccc(C2/C=C\CN(C(=O)c3ccccc3)C(Cc3ccccc3)C(=O)N2Cc2ccc(F)cc2)cc1 (stereo not given)	inconclusive: 11.2 µM [inhibitor, single point]	
COc1cccc(CN2CCC(n3nccc3NC(=O)CCCc3ccccc3)CC2)c1O	inconclusive: 15.8 µM [inhibitor, single point]	

Structure (SMILES)	Potency	activity, negative = inhibition
Fc1ccc(-n2ncc3c(Nc4ccc5c(c4)OCCO5)ncnc32)cc1	inconclusive: 2.82 µM [inhibitor, partial curve, poor fit]	
CCOc1ccc(N(CC(=O)Nc2cccc(Cl)c2)S(=O)(=O)c2c(C)noc2C)cc1	inconclusive: 14.1 µM [inhibitor, partial curve, poor fit]	
Cc1ccc(N2CCN(C(=O)c3cc4cc5ccc(C)cc5nc4s3)CC2C)cc1 (stereo not given)	inconclusive: 3.16 µM [inhibitor, single point]	
O=C(CCNS(=O)(=O)c1ccc(OC(F)(F)F)cc1)N1CCCC1	inconclusive: 5.62 µM [inhibitor, single point]	
Cc1ccc(Nc2sc(C(=O)c3ccccc3)c(N)c2S(=O)(=O)c2ccccc2)cc1Cl		inactive: -13.3%
Cc1ccc(N(C(=O)Cn2nnc(-c3ccccc3F)n2)C(C(=O)NC2CCCC2)c2ccncc2)cc1 (stereo not given)		inactive: 15.5%
Cc1noc(C)c1CCC(=O)NC1CCCN(Cc2ccc(CC(C)C)cc2)C1 (stereo not given)	inconclusive: 35.5 µM [inhibitor, single point]	
O=C(O)c1cc([N+](=O)[O-])ccc1Nc1ccccc1		inactive: -11.3%
COc1ccc(Cl)cc1NC(=O)Cn1ccn(-c2cc(C)cc(C)c2)c(=O)c1=O		inactive: -27.5%
Cc1nc(NC(=O)/C=C/c2ccccc2)sc1C(=O)NCCO	inconclusive: 1.12 µM [inhibitor, full curve, poor fit]	
Cn1nnc2c(N3CCN(c4ccc(F)cc4)CC3)ncnc21		inactive: 13.2%
Cc1ccnc(NC(=O)C2CCN(S(=O)(=O)c3cccc4nonc34)CC2)c1		inactive: -25.3%
CC(C)N(C(=O)[C@H]1CC(CC(=O)NCc2ccco2)C(=O)N2CCc3c([nH]c4ccccc34)[C@]12C)C(C)C (stereo not given in full)	inconclusive: 17.8 µM [inhibitor, single point]	
Cc1occc1-c1nnc(SCC(=O)Nc2nc(-c3ccccc3)cs2)o1	inconclusive: 35.5 µM [inhibitor, partial curve, poor fit]	
COc1ccc(-c2csc(-c3ccc(O)cc3)n2)cc1	inconclusive: 10 µM [inhibitor, partial curve]	
Cc1ccc(-n2c(C)nc3c(cnn3-c3ccc(C)c(C)c3)c2=O)cc1C	inconclusive: 25.1 µM [inhibitor, single point]	
Cc1cc(Cl)cc(C)c1OCCOCCNCc1ccccc1	inconclusive: 20 µM [inhibitor, single point]	
C[C@@H]1CN([C@@H](C)CO)S(=O)(=O)c2ccc(Br)cc2O[C@H]1CN(C)C(=O)C1CCOCC1		inactive: -2.61%
CC(C)Oc1ccc(C(=O)N(Cc2ccc(N(C)C)cc2)C2CCS(=O)(=O)C2)cc1 (stereo not given)		inactive: -5.02%
C/C(=N/Nc1ccc(C(=O)O)cc1)c1ccc2c(c1)Nc1ccccc1S2		inactive: 12.5%
COC(=O)c1ccc2nc(-c3ccc(OC)c(OC)c3)c(Cc3ccc(C)cc3)n2c1	inconclusive: 35.5 µM [inhibitor, single point]	
